Structures can show the parent of a compound that is named as a salt.
System: SARS-CoV-2
Format: cell-based

## CN1CCCC(n2nc(Cc3ccc(Cl)cc3)c3ccccc3c2=O)CC1 (stereo not shown) [Azelastine-HCl]
  protection of SARS-CoV-2 infected cells from dying: significantly protected from dying

Source: US20230201216A1, “AZELASTINE AS ANTIVIRAL TREATMENT” (priority 2020, published 2023)
